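Cultured in 96-well plates, cells were exposed to test compound for 48 hours across five concentrations. GI50: concentration for 50% inhibition of growth. TGI denotes the concentration required for complete inhibition of growth.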

The record followed here is PubChem BioAssay (NCI).

The test system of the experiment is NCI-H322M lung. The experiment is described as follows: NCI anticancer screen, dose series, 48 h.

As to `CN(C)c1nc(NCCNS(=O)(=O)c2ccc(C(=O)/C=C/c3ccc(Cl)cc3)cc2)nc(Nc2ccc(F)cc2)n1`, the GI50 is 9.36 µM and the TGI amounted to 24.9 µM.
